Results from the RNAGym collection of RNA variant scans (doi:10.1093/nar/gkz1192).
The source gives no read counts; variants with many changes may rest on few reads.

B1: CPEB3 Ribozyme (parent)
chain: UAACAGGGGGCCACAGCAGAAGCGUUCACGUCGCAGCCCCUGUCAGAUUCUGGUGAAUCUGCGAAUUCUGCUGUAUAUCUC

Variants of: B1
Assay: self-cleavage, relative activity (ratio to wild type); higher = more cleavage; in vitro, sequencing
Summary of the method: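 After error-prone PCR and barcoding, CPEB3 ribozyme mutant libraries were transcribed with T7 RNA polymerase at 37°C for 5 hours, then given 15 min with DNase I before an EDTA stop, and they cleaved during both steps. Reverse transcription with template switching preceded Illumina sequencing. Relative activity divides a variant's cleaved/total read fraction by the unmutated ribozyme's. At least 5 reads were required per variant, and three batches were averaged.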

Variant	self-cleavage
UAACAGGGGGCCACAGCAGAAGCGUUCACGUCGCAGCCCCUGUCUGGUUCUGGUGAAUCUGCGAAUUCUGCUGUAUAUCAC	0.32
UAACAGGGGGCCACAGCAGAAGCGUUCACGUCGCAGCCCCUGUCUGUCUCUGGUGAAUCUGCGAAUUCUGCUGUAUAUCUC	0.16
UAACAGGGGGCCACAGCAGAAGCGUUCACGUCGCAGCCCCUGUCUGAUUCUGGUGCUUCUGCGAAUUCUGCUGUAUAUCUC	0.12
UAACAGGGGGCCACAGCAGAAGCGUUCACGUCGCAGCCCCUGUCUGAUUCUGGUGGGUCUGCGAAUUCUGCUGUAUAUCUC	0.14
UAACAGGGGGCCACAGCAGAAGCGUUCACGUCGCAGCCCCUGUCUGAUUCUGGUGGAUCUGCGAAUUCUGCUGUUUAUCUC	0.23
UAACAGGGGGCCACAGCAGAAGCGUUCACGUCGCAGCCCCUGUCUGAUUCUGGUGGAUCAGCGAAUUCUGCUGUAUAUCUC	0.91
UAACAGGGGGCCACAGCAGAAGCGUUCACGUCGCAGCCCCUGUCUGAUUCUGGUGGAUCUGCGAAUUCUGCAGUAUAUCUC	0.18
UAACAGGGGGCCACAGCAGAAGCGUUCACGUCGCAGCCCCUGUCUGAUUCUGGUGGAUCUGCGAAUUCUGCUGUACAUCUC	0.32
UAACAGGGGGCCACAGCAGAAGCGUUCACGUCGCAGCCCCUGUCUGAUUCUGGUGGAUCUGCGAAUUCUGCUGUAUAACCC	0.31
UAACAGGGGGCCACAGCAGAAGCGUUCACGUCGCAGCCCCUGUCUGAUUCUGGUGUAUCUGCGUAUUCUGCUGUAUAUCUC	0.21
UAACAGGGGGCCACAGCAGAAGCGUUCACGUCGCAGCCCCUGUCUGAUUCUGGUGUAUCUGCGAGUUCUGCUGUAUAUCUC	0.14
UAACAGGGGGCCACAGCAGAAGCGUUCACGUCGCAGCCCCUGUCUGAUUCUGGUGUAUCUGCGAAUUCUGCUGUAUAUCCC	0.16
UAACAGGGGGCCACAGCAGAAGCGUUCACGUCGCAGCCCCUGUCUGAUUCUGGUGUAUCUGCGAAUUCUGCUGUAUAUCGC	0.03
UAACAGGGGGCCACAGCAGAAGCGUUCACGUCGCAGCCCCUGUCUGAUUCUGGUGAGUCUGGGAAUUCUGCUGUAUAUCUC	0.23
UAACAGGGGGCCACAGCAGAAGCGUUCACGUCGCAGCCCCUGUCUGAUUCUGGUGAGUCUGCUAUUUCCGCUGUAUAUCUC	0.1
UAACAGGGGGCCACAGCAGAAGCGUUCACGUCGCAGCCCCUGUCUGAUUCUGGUGAGCCUGCGAAUUCUGCUGUAUAUCUC	0.1
UAACAGGGGGCCACAGCAGAAGCGUUCACGUCGCAGCCCCUGUCUGAUUCUGGUGAGUCUGCGAAUUCCGCUGUAUAUCUC	0.23

Variant	self-cleavage
UAACAGGGGGCCACAGCAGAAGCGUUCACGUCGCAGCCCCUGUCUGAUUCUGGUGAGUCUGCGAAUUCUGCUGUAAAUCUC	0.22
UAACAGGGGGCCACAGCAGAAGCGUUCACGUCGCAGCCCCUGUCUGAUUCUGGUGAGUCUGCGAAUUCUGCUGUACAUCUC	0.4
UAACAGGGGGCCACAGCAGAAGCGUUCACGUCGCAGCCCCUGUCUGAUUCUGGUGAUUCUGCGGAUUCUGCUGUAUAUCUC	0.13
UAACAGGGGGCCACAGCAGAAGCGUUCACGUCGCAGCCCCUGUCUGAUUCUGGUGAUUCUGCGAGCUCCGCAGUAUAUCUC	0.09
UAACAGGGGGCCACAGCAGAAGCGUUCACGUCGCAGCCCCUGUCUGAUUCUGGUGAUUAUGCGAAUUCUGCUGUAUAUCUC	0.2
UAACAGGGGGCCACAGCAGAAGCGUUCACGUCGCAGCCCCUGUCUGAUUCUGGUGAAUCUGCGCAUUCAGCUGUAUAACUC	0.37
UAACAGGGGGCCACAGCAGAAGCGUUCACGUCGCAGCCCCUGUCUGAUUCUGGUGAAUCUGCGUAUUCCGCUGUAUAUCUC	0.47
UAACAGGGGGCCACAGCAGAAGCGUUCACGUCGCAGCCCCUGUCUGAUUCUGGUGAAUCUGCGUAUUCUGCUGAAUAUCUC	0.28
UAACAGGGGGCCACAGCAGAAGCGUUCACGUCGCAGCCCCUGUCUGAUUCUGGUGAAUCUGCGAGUUCUGCUGUAUUUCUC	0.24
UAACAGGGGGCCACAGCAGAAGCGUUCACGUCGCAGCCCCUGUCUGAUUCUGGUGAAUCUGCGAGUUCUGCUGUAUAUAUC	0.11
UAACAGGGGGCCACAGCAGAAGCGUUCACGUCGCAGCCCCUGUCUGAUUCUGGUGAAUCUGCGAUUUAUGCUGUAUAUCUC	0.38
UAACAGGGGGCCACAGCAGAAGCGUUCACGUCGCAGCCCCUGUCUGAUUCUGGUGAAUCUGCGAAUUCUGCUGUAUGCCUC	0.67
UAACAGGGGGCCACAGCAGAAGCGUUCACGUCGCAGCCCCUGUCUGAUUUUGGUGAAUCUGAGAAUUCUGCUGUAUAUCUC	0.17
UAACAGGGGGCCACAGCAGAAGCGUUCACGUCGCAGCCCCUGUCUGAUUCUGGUGAAUCUGCGAAUUUUGCUGUUUAUCCC	0.19
UAACAGGGGGCCACAGCAGAAGCGUUCACGUCGCAGCCCCUGUCUGAUUCUCGUGAAUCUGCGAAUACUGCUGUAUAUCUC	0.2
UAACAGGGGGCCACAGCAGAAGCGUUCACGUCGCAGCCCCUGUCUGAUUCUUGUGAAUCUGCGAAUUCUGCUGUAUGUCUC	0.51
UAACAGGGGGCCACAGCAGAAGCGUUCACGUCGCAGCCCCUGUCUGAUUCUGAUGAAUCCGCGAAUUCUGCUGUAUAUCUC	0.74
